Substitutions are numbered along the chain they refer to. These are yes or no findings as the source states them, for the method shown. In cells and extracts the contact can be indirect. Some binding calls cover weakened binding; strength is not graded here. For part of these data: Tags and fused reporters may be left off the sequences shown.
T1: Mad3p double KEN mutant (mad3-KEN30/296AAA) (S. cerevisiae) (UniProt P47074)
T1 sequence: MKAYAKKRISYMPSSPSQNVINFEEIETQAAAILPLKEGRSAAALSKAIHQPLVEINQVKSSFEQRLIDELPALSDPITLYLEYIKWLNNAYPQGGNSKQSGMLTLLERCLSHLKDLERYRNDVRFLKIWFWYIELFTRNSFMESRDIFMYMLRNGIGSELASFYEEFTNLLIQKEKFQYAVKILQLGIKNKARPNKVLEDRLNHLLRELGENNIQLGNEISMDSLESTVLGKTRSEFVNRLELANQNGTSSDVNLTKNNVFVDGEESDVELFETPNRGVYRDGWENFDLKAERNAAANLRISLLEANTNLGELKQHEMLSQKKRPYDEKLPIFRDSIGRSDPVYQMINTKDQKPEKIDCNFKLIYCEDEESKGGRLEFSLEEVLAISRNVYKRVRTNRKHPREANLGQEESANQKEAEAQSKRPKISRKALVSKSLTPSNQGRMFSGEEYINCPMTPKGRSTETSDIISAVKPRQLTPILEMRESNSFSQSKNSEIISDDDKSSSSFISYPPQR

T2: Mad3-KEN30AAAp (S. cerevisiae) (UniProt P47074)
T2 sequence: T1 sequence with A296K, A297E, A298N

T3: mad3-KEN296AAAp (S. cerevisiae) (UniProt P47074)
T3 sequence: T1 sequence with A30K, A31E, A32N

T4: Mad3p (wild type, S. cerevisiae) (S. cerevisiae) (UniProt P47074)
T4 sequence: T1 sequence with A30K, A31E, A32N, A296K, A297E, A298N

T5: Mad3p (wild type, S. cerevisiae) (S. cerevisiae), P47074
T5 chain: T1 sequence with A30K, A31E, A32N, A296K, A297E, A298N

B1: Bub3-myc13 (protein, UniProt P26449 1-341)
chain: MQIVQIEQAPKDYISDIKIIPSKSLLLITSWDGSLTVYKFDIQAKNVDLLQSLRYKHPLLCCNFIDNTDLQIYVGTVQGEILKVDLIGSPSFQALTNNEANLGICRICKYGDDKLIAASWDGLIEVIDPRNYGDGVIAVKNLNSNNTKVKNKIFTMDTNSSRLIVGMNNSQVQWFRLPLCEDDNGTIEESGLKYQIRDVALLPKEQEGYACSSIDGRVAVEFFDDQGDDYNSSKRFAFRCHRLNLKDTNLAYPVNSIEFSPRHKFLYTAGSDGIISCWNLQTRKKIKNFAKFNEDSVVKIACSDNILCLATSDDTFKTNAAIDQTIELNASSIYIIFDYEN
B2: Cdc20p-myc13 (protein, UniProt P26309 1-610)
chain: MPESSRDKGNAAISGNRSVLSIASPTKLNILSSDWSRNQGKVSKNSLKRSSSLNIRNSKRPSLQASANSIYSRPKITIGAPPLIRRDSSFFKDEFDAKKDKATFSAYSSRSYPTIGSESVVSQTSLSQPTTSREVDEQFTVAADRYIPILQGASQNKVDPETLHEALPPPNASPISHLRAQTKIVFKQNVAEACGLDMNKRILQYMPEPPKCSSLRQKSYIMKKRTHYSYQQEQKIPDLIKLRKINTNPERILDAPGFQDDFYLNLLSWSKKNVLAIALDTALYLWNATTGDVSLLTDFENTTICSVTWSDDDCHISIGKEDGNTEIWDVETMSLIRTMRSGLGVRIGSLSWLDTLIATGSRSGEIQINDVRIKQHIVSTWAEHTGEVCGLSYKSDGLQLASGGNDNTVMIWDTRTSLPQFSKKTHTAAVKALSWCPYSPNILASGGGQTDKHIHFWNSITGARVGSINTGSQVSSLHWGQSHTSTNGGMMNKEIVATGGNPENAISVYNYETKFKVAEVVHAHEARICCSQLSPDGTTLATVGGDENLKFYKIFDPRCTGRSREDGLMDGMLGLIGKEGCRTNDKENRSKNSSEIHTRRPSSTSQYLIR
B3: Mad2p (S. cerevisiae), P40958 1-196 (protein)
chain: MSQSISLKGSTRTVTEFFEYSINSILYQRGVYPAEDFVTVKKYDLTLLKTHDDELKDYIRKILLQVHRWLLGGKCNQLVLCIVDKDEGEVVERWSFNVQHISGNSNGQDDVVDLNTTQSQIRALIRQITSSVTFLPELTKEGGYTFTVLAYTDADAKVPLEWADSNSKEIPDGEVVQFKTFSTNDHKVGAQVSYKY

Assays:
Assay in all cases: co-IP; native yeast extracts; Mad3p complexes immunoprecipitated (anti-Mad3p), then immunoblotted for Mad3p, Bub3-myc13 (anti-myc), Mad2p and Cdc20p-myc13 (anti-myc); for Mad2p and Cdc20p the cells were arrested in mitosis with hydroxyurea and nocodazole
[1] = target: T1, Mad3p double KEN mutant (mad3-KEN30/296AAA) (S. cerevisiae)
[2] = target: T2, Mad3-KEN30AAAp (S. cerevisiae)
[3] = target: T3, mad3-KEN296AAAp (S. cerevisiae)
[4] = target: T4, Mad3p (wild type, S. cerevisiae) (S. cerevisiae)
[5] = target: T5, Mad3p (wild type, S. cerevisiae) (S. …); settings: remark: other sources report otherwise

Molecule | binding [1] | binding [2] | binding [3] | binding [4] | binding [5]
Mad2p (S. cerevisiae) (from UniProt P40958 1-196) | no binding | no binding | binds | – | –
B1 | binds | binds | binds | binds | –
B2 | no binding | no binding | binds | binds | –
B3 | – | – | – | – | binds
